Source: PubChem BioAssay AID1768 (National Center for Advancing Translational Sciences (NCATS), 2009)
Several values for one entry are separate records, joined by “and”; a condition that tells them apart may be missing. Equal values may be shown once. Among all 270,000 compounds or so, about 620 (0.23%) were called active. The inconclusive results got no clear call from the source; some entries with a clear call stand among them for comparison. Calls come from the whole dose curve; as a rule, active = well fitted inhibition curve with a large enough effect in the polarisation, with a control signal flat (not every such curve was filed as active); inconclusive = small, poorly fitted or top-dose-only effect, or effect the other way, or a change in a side signal; inactive = no such curve, though single readings can be large or run the other way; the % refers to the polarisation. Potencies of inconclusive entries are doubtful fits and often do not repeat. A note “side channel” means that the fit belongs to a control or component signal, not to the main read-out.

molecular target: Menin (Homo sapiens) (UniProt O00255); assay: qHTS Assay for Inhibitors Targeting the Menin-MLL Interaction in MLL Related Leukemias: Competition With Texas Red Labeled MLL-derived Mutant Peptide; conditions: fluorescence polarization; FP activity change, negative = inhibition: at 61.6 µM (top of the series); for FP activity change, negative = inhibition: % of control where 0% means no effect
Sequence of UniProt O00255 (O00255 whole entry, looked up): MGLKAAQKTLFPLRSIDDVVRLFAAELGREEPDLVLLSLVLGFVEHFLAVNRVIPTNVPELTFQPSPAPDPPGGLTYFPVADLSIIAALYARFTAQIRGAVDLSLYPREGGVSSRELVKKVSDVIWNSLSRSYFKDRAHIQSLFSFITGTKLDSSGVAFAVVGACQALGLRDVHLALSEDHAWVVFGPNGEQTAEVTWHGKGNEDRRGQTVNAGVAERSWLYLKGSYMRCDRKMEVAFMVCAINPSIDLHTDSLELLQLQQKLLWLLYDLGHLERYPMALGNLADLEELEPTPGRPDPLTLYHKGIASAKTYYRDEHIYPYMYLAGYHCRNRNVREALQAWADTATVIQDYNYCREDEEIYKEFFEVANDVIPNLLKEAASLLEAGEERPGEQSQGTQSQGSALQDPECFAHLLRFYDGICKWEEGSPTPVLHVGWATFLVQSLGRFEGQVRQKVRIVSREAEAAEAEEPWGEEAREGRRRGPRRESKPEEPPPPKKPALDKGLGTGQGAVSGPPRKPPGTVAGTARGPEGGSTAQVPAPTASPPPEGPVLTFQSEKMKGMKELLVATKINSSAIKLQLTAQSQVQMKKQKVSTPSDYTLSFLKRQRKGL
Potency is the fitted concentration of half-maximal effect; tags give direction and shape of the fitted curve or compound fluorescence and quenching.

Question: For `O=S(=O)(c1ccc2ccccc2c1)N1CCN(C(=S)Nc2ccc(F)c(Cl)c2)CC1`, which Potency is on record?
Answer: The Potency was inconclusive: 14.1 µM [quencher, side channel, partial curve].

Question: With `Cc1ccc(NC(=O)c2ccc(F)c(S(=O)(=O)N3CCOCC3)c2)cc1F` as the molecule, how does the Potency read?
Answer: Its Potency is inconclusive: 25.1 µM [quencher, side channel, partial curve].

Question: For `O=C(Nc1nc2c(Cl)ccc(Cl)c2s1)c1ccco1`, which Potency is on record?
Answer: The Potency was inconclusive: 14.1 µM [quencher, side channel, partial curve].

Question: How did the Potency turn out when `O=C(N/N=C/c1ccccc1[N+](=O)[O-])c1ccc(COc2ccccc2-c2ccccc2)cc1` was run?
Answer: Its Potency is inconclusive: 20 µM [quencher, side channel, single point].

Question: For `CCc1ccc(/C=N/NC(=O)c2nnn(-c3nonc3N)c2CN2CCc3ccccc32)cc1`, which Potency is on record?
Answer: Its Potency is inconclusive: 11.2 µM [quencher, side channel, partial curve].

Question: Which Potency does the source give for `CCN(CC)S(=O)(=O)c1cccc(NC(=O)/C=C/c2cccc([N+](=O)[O-])c2)c1` here?
Answer: Its Potency is inconclusive: 12.6 µM [quencher, side channel, partial curve].

Question: With `COc1ccc(C(=O)NCC(=O)NCC(=O)OCC(=O)c2ccc(Br)cc2)cc1` as the molecule, how does the Potency read?
Answer: The Potency was inconclusive: 28.2 µM [fluorescent, side channel, single point].

Question: `Cc1[nH]c2ccccc2c1CCNC(=O)c1ccc2c(c1[N+](=O)[O-])C(=O)c1ccccc1C2=O` was tested. Which Potency did it give?
Answer: The Potency was inconclusive: 15.8 µM [quencher, side channel, partial curve].

Question: Which “FP activity change, negative = inhibition” value does the source give for `Cc1ccc(S(=O)(=O)N2CCN(C(=O)CN3CCCC3)C2)cc1` here?
Answer: The value was inactive: 9.21%.

Question: Which Potency does the source give for `CCC(C)[C@H](NC(=O)N1CCC(Cc2ccccc2)CC1)C(=O)O` (stereo not given in full) here?
Answer: Its Potency is inconclusive: 17.8 µM [inhibitor, partial curve].

Question: For `CN(C)c1nc(N)nc(CSc2nnnn2-c2ccccc2)n1`, which Potency is on record?
Answer: The Potency was inconclusive: 39.8 µM [fluorescent, side channel, single point].

Question: For `CN(C)c1ccc(C(=C2C=CC(=[N+](C)C)C=C2)c2ccccc2)cc1`, which Potency is on record?
Answer: The Potency was inconclusive: 25.1 µM [fluorescent, side channel, partial curve] and inconclusive: 1.12 µM [inhibitor, full curve, poor fit].

Question: How did the Potency turn out when `Cc1ccc(C(=O)c2coc3c2C(=O)C(=O)c2ccccc2-3)cc1` was run?
Answer: The Potency was inconclusive: 28.2 µM [quencher, side channel, single point].

Question: How did the Potency turn out when `Oc1ccccc1C1=NN(c2ccccc2)C(c2ccc(F)cc2)C1` (stereo not given) was run?
Answer: Its Potency is inconclusive: 10 µM [quencher, side channel, partial curve].

Question: How did the “FP activity change, negative = inhibition” value turn out when `COc1ccc([N+](=O)[O-])cc1NC(=O)C(C)Sc1nc(C)c(C)c(C)n1` (stereo not given) was run?
Answer: The value was inactive: 9.72%.

Question: `COc1cc(/C=C/c2ccc3cccc(O)c3n2)ccc1O` was tested. Which Potency did it give?
Answer: The Potency was inconclusive: 17.8 µM [quencher, side channel, partial curve].

Question: With `O=C(Cc1ccc(Cl)cc1Cl)Nc1ccc(OC(F)F)c(Cl)c1` as the molecule, how does the Potency read?
Answer: Its Potency is inconclusive: 10 µM [quencher, side channel, partial curve].

Question: `CCOc1ccc(/C=C\c2nc(O)c([N+](=O)[O-])c(=O)[nH]2)cc1OCC` was tested. Which Potency did it give?
Answer: Its Potency is inconclusive: 31.6 µM [quencher, side channel, single point].

Question: With `CSc1ccc(CCNC(=O)CN2C(=O)CCSc3ccccc32)cc1` as the molecule, how does the Potency read?
Answer: The Potency was inconclusive: 20 µM [fluorescent, side channel, partial curve].

Question: Which Potency does the source give for `Cn1ncc2c(Nc3ccc(Br)cc3)nc(Nc3ccc(Br)cc3)nc21` here?
Answer: Its Potency is inconclusive: 3.16 µM [quencher, side channel, full curve].

Question: `O=C(Nc1ccccc1N1CCOCC1)c1cc(Br)c(Br)s1` was tested. Which Potency did it give?
Answer: The Potency was inconclusive: 25.1 µM [fluorescent, side channel, single point].

Question: How did the Potency turn out when `C(=N/n1c2ccccc2c2ccccc21)/c1ccco1` was run?
Answer: The Potency was inconclusive: 12.6 µM [quencher, side channel, partial curve].

Question: How did the Potency turn out when `CO/N=C(\c1nonc1N)N1CCN(c2ccc([N+](=O)[O-])cc2Cl)CC1` was run?
Answer: Its Potency is inconclusive: 12.6 µM [quencher, side channel, partial curve].

Question: For `COc1ccc(C2CC(c3cccs3)=NN2c2ccccc2)cc1` (stereo not given), which Potency is on record?
Answer: Its Potency is inconclusive: 10 µM [quencher, side channel, partial curve].

Question: With `Cc1cc(C)c(NC(=O)COc2ccccc2C(=O)Nc2ccc3c(c2)oc2ccccc23)c(C)c1` as the molecule, how does the Potency read?
Answer: Its Potency is inconclusive: 4.47 µM [inhibitor, full curve].

Question: `COc1cc(C/C=C\c2ccccc2)c(OC)cc1O` was tested. Which Potency did it give?
Answer: Its Potency is inconclusive: 25.1 µM [quencher, side channel, partial curve].

Question: With `Cc1ccc(-c2ccc(/C=N\NC(=O)c3cc4c(ccc5ccccc54)o3)o2)cc1[N+](=O)[O-]` as the molecule, how does the “FP activity change, negative = inhibition” value read?
Answer: Its value is inactive: 2.08%.

Question: With `CCOc1ccc(C)cc1S(=O)(=O)n1ccnc1` as the molecule, how does the Potency read?
Answer: The Potency was inconclusive: 6.31 µM [inhibitor, partial curve].

Question: Which Potency does the source give for `CCCc1cc(C(=O)Cc2ccc(C(=O)OCC)o2)c(O)cc1O` here?
Answer: Its Potency is inconclusive: 25.1 µM [quencher, side channel, single point].

Question: For `CCn1c(C)c(C)c2cc(C(=O)N3CCc4ccccc4C3)ccc21`, which Potency is on record?
Answer: Its Potency is inconclusive: 1.26 µM [fluorescent, side channel, full curve, poor fit].

Question: Which Potency does the source give for `CC(=O)c1ccc(N2CCN(C(=S)Nc3cccc(F)c3)CC2)cc1` here?
Answer: The Potency was inconclusive: 39.8 µM [inhibitor, single point].

Question: Which Potency does the source give for `CSc1nsc(SCC(=O)Nc2nc3ccccc3s2)n1` here?
Answer: Its Potency is inconclusive: 39.8 µM [quencher, side channel, single point].

Question: Which “FP activity change, negative = inhibition” value does the source give for `CC1CC(C)CN(C(=O)c2cc3c(=O)n4ccccc4nc3s2)C1` (stereo not given) here?
Answer: Its value is inactive: -18.8%.

Question: `NS(=O)(=O)c1ccc(CCNC(=O)c2ccc(Br)s2)cc1` was tested. Which Potency did it give?
Answer: The Potency was inconclusive: 31.6 µM [inhibitor, single point].

Question: How did the Potency turn out when `S=C(NCc1cccs1)Nc1cccc(Cl)c1Cl` was run?
Answer: The Potency was inconclusive: 20 µM [quencher, side channel, single point].

Question: How did the Potency turn out when `CCC(=O)Nc1ccc(C(=O)CSc2nc3ccccc3[nH]2)cc1` was run?
Answer: Its Potency is inconclusive: 17.8 µM [quencher, side channel, partial curve].

Question: `CCc1c(C(=O)N/N=C/c2sccc2C)nnn1-c1nonc1N` was tested. Which Potency did it give?
Answer: Its Potency is inconclusive: 35.5 µM [inhibitor, single point].

Question: Which Potency does the source give for `C=CCOc1ccc(C2C(C(=O)c3ccco3)=C(O)C(=O)N2c2nnc(C)s2)cc1` (stereo not given) here?
Answer: Its Potency is inconclusive: 15.8 µM [quencher, side channel, partial curve].

Question: With `Cc1[nH]c(=S)c(C#N)c2c1CCCC2` as the molecule, how does the “FP activity change, negative = inhibition” value read?
Answer: Its value is inactive: 19.8%.

Question: How did the Potency turn out when `COc1cc(CNCc2ccccn2)ccc1OCc1ccccc1Cl` was run?
Answer: Its Potency is inconclusive: 39.8 µM [fluorescent, side channel, partial curve].

Question: How did the Potency turn out when `O=C(O)c1cc(N/N=C2/CC(c3ccccc3)Oc3ccccc32)ccc1Cl` (stereo not given) was run?
Answer: The Potency was inconclusive: 15.8 µM [quencher, side channel, partial curve].

Question: `O=C(Nc1ccc2[nH]c(=S)sc2c1)Nc1ccccc1F` was tested. Which Potency did it give?
Answer: Its Potency is inconclusive: 6.31 µM [quencher, side channel, partial curve].

Question: How did the Potency turn out when `CCN(CC)C(=O)c1ccc(COc2ccccc2Cl)cc1` was run?
Answer: Its Potency is inconclusive: 25.1 µM [fluorescent, side channel, single point].

Question: With `O=C(Nc1nc2c(s1)CCCC2)c1cc(-c2ccc3c(c2)OCO3)nc2ccccc12` as the molecule, how does the Potency read?
Answer: Its Potency is inconclusive: 2.24 µM [quencher, side channel, full curve, poor fit].

Question: `CC[C@H](C)[C@H](NC(=O)[C@H](C)NC(=O)[C@@H](N)C(C)C)C(=O)N[C@H](C(=O)N[C@H](C(=O)N[C@@H](CC(C)C)C(=O)N[C@H](C(=O)N[C@@H](CCCCN)C(=O)O)C(C)C)C(C)C)[C@@H](C)O` was tested. Which Potency did it give?
Answer: Its Potency is inconclusive: 3.55 µM [fluorescent, side channel, partial curve].

Question: With `COc1cc(C2CC(c3cccs3)=NN2C(=O)CCl)ccc1OC(F)F` (stereo not given) as the molecule, how does the Potency read?
Answer: The Potency was inconclusive: 15.8 µM [fluorescent, side channel, partial curve].

Question: For `O=C(c1ccc(COc2ccccc2Cl)o1)N1N=C(C(F)F)CC1(O)C(F)F` (stereo not given), which Potency is on record?
Answer: The Potency was inconclusive: 28.2 µM [quencher, side channel, single point].

Question: Which Potency does the source give for `Cc1cc(-c2ccc(C)c(S(=O)(=O)NCc3ccc(Br)cc3)c2)on1` here?
Answer: Its Potency is inconclusive: 22.4 µM [quencher, side channel, single point].

Question: Which Potency does the source give for `O=C(CSCc1ccc([N+](=O)[O-])cc1)Nc1ccccc1C(=O)O` here?
Answer: Its Potency is inconclusive: 39.8 µM [quencher, side channel, single point].

Question: With `OCCNc1nc(OCC(F)(F)F)nc(N2CCN(C34CC5CC(CC(C5)C3)C4)CC2)n1` as the molecule, how does the Potency read?
Answer: Its Potency is inconclusive: 5.62 µM [inhibitor, partial curve].

Question: For `COc1cc(/C=N/NC(=O)c2ccc3c(c2)OCO3)ccc1O`, which Potency is on record?
Answer: Its Potency is inconclusive: 2.82 µM [inhibitor, full curve].

Question: `COc1ccc(-c2cc(C3CCNCC3)[nH]n2)cc1` was tested. Which Potency did it give?
Answer: The Potency was inconclusive: 15.8 µM [inhibitor, single point].

Question: With `COc1ccc(CN2CCC(N3CC(C)OC(C)C3)CC2)c(OC)c1` (stereo not given) as the molecule, how does the Potency read?
Answer: Its Potency is inconclusive: 28.2 µM [inhibitor, partial curve].

Question: How did the Potency turn out when `COc1cc(/C=C2/C(=O)c3cccc([N+](=O)[O-])c3C2=O)c(Br)cc1O` was run?
Answer: Its Potency is inconclusive: 22.4 µM [quencher, side channel, single point].

Question: Which Potency does the source give for `COc1cc2c(cc1NC(=O)c1cccc([N+](=O)[O-])c1)oc1ccccc12` here?
Answer: The Potency was inconclusive: 7.08 µM [quencher, side channel, partial curve].
